Experimental data from the supplement of paper PMC12217912.
Some of the results follow. The full chains were built here from the parent and the listed change. Values near 0.05 are background.

B1: TEV protease; numbered along this chain (parent)
chain: MGESLFKGPRDYNPISSSICHLTNESDGHTTSLYGIGFGPFIITNKHLFRRNNGTLVVQSLHGVFKVKDTTTLQQHLVDGRDMIIIRMPKDFPPFPQKLKFREPQREERICLVTTNFQTKSMSSMVSDTSCTFPSGDGIFWKHWIQTKDGQCGSPLVSTRDGFIVGIHSASNFTNTNNYFTSVPKNFMELLTNQEAQQWVSGWRLNADSVLWGGHKVFMVKPEEPFQPVKEATQL

Variants of: B1
Test: raw area under fraction-flipped curve 0-4 h after induction (AUC4h, not background-subtracted), DNA-recorder readout of cleavage of the substrate (dimensionless); higher = more cleavage of the substrate by the protease variant
Details: temperature: 34 °C; time window: 0-4 h after rhamnose induction
Method: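 In vivo DNA recorder in E. coli TOP10(DE3) ΔrhaA at 34 °C. Each TEVp single-site mutant (parent TEVp 0) is paired with a single-site variant of the 7-mer TEVs (canonical ENLYFQ|S). The substrate sits between flexible linkers in a Bxb1-sfGFP-TEVs-SsrA fusion, so cleavage stabilises Bxb1 and speeds flipping of a recombination array, read by NGS. The value is the raw area under the fraction-flipped curve over 0-4 h after rhamnose induction (AUC4h), with ≥20 reads per time point. It is not background-subtracted; inactive controls average about 0.047.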
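Also: Bxb1 expression induced with 0.2% (w/v) L-rhamnose at OD600 near 0.5, cultures sampled hourly, flipped fraction per protease–substrate barcode pair counted by paired-end Illumina sequencing.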

Variant	area with substrate ENLYCQS	area with substrate ENLYEQS	area with substrate ENLYGQS	area with substrate ENLYIQS	area with substrate ENLYKQS	area with substrate ENLYMQS	area with substrate ENLYNQS	area with substrate ENLYPQS	area with substrate ENLYRQS	area with substrate ENLYTQS	area with substrate ENLYVQS	area with substrate ENLYDQS	area with substrate ENLYHQS	area with substrate ENLYLQS	area with substrate ENLYQQS	area with substrate ENLYSQS	area with substrate ENLYWQS	area with substrate ENLYYQS
MGESLFKGPRDYNPISSSICHLTNESDGHTTSLYWIGFGPFIITNKHLFRRNNGTLVVQSLHGVFKVKDTTTLQQHLVDGRDMIIIRMPKDFPPFPQKLKFREPQREERICLVTTNFQTKSMSSMVSDTSCTFPSGDGIFWKHWIQTKDGQCGSPLVSTRDGFIVGIHSASNFTNTNNYFTSVPKNFMELLTNQEAQQWVSGWRLNADSVLWGGHKVFMVKPEEPFQPVKEATQL [G35W]	0.045	0.0324	0.0442	0.0447	0.0617	0.0435	0.0559	0.053	0.0469	0.0507	0.0459	–	–	–	–	–	–	–
MGESLFKGPRDYNDISSSICHLTNESDGHTTSLYGIGFGPFIITNKHLFRRNNGTLVVQSLHGVFKVKDTTTLQQHLVDGRDMIIIRMPKDFPPFPQKLKFREPQREERICLVTTNFQTKSMSSMVSDTSCTFPSGDGIFWKHWIQTKDGQCGSPLVSTRDGFIVGIHSASNFTNTNNYFTSVPKNFMELLTNQEAQQWVSGWRLNADSVLWGGHKVFMVKPEEPFQPVKEATQL [P14D]	0.0831	0.0654	0.0932	0.136	0.0793	0.0897	0.0821	0.0727	0.07	0.0662	0.106	0.0685	0.066	0.0843	0.0354	0.0593	0.0856	0.079
MGESLFKGPRDYNPISSSICHLTNESDGHTTSLYGIGFGPFIITNKHLFRRNNGTLVVQSLWGVFKVKDTTTLQQHLVDGRDMIIIRMPKDFPPFPQKLKFREPQREERICLVTTNFQTKSMSSMVSDTSCTFPSGDGIFWKHWIQTKDGQCGSPLVSTRDGFIVGIHSASNFTNTNNYFTSVPKNFMELLTNQEAQQWVSGWRLNADSVLWGGHKVFMVKPEEPFQPVKEATQL [H62W]	0.0835	0.0637	0.0587	0.107	0.048	–	0.0562	0.0406	0.0634	0.0718	0.0981	–	0.068	–	0.0198	–	0.0822	0.0748
MGESLFKGPRDYNPISSSICHLTNESDGHTTSLYGIGFGPFIITNKHLFRRNNGTLVVQSLHGVFKVKDTTTLQQHLVDGRDMIIIRMPKDFPPFPQKLKFREPQREERICLVTTNFQTKSMSSMVSDFSCTFPSGDGIFWKHWIQTKDGQCGSPLVSTRDGFIVGIHSASNFTNTNNYFTSVPKNFMELLTNQEAQQWVSGWRLNADSVLWGGHKVFMVKPEEPFQPVKEATQL [T129F]	0.087	0.0732	–	–	0.0675	–	0.0647	–	0.0575	–	0.0756	–	0.0663	–	0.0701	0.055	0.0693	–
MGESLFKGPRDYNPISSSICHLTNESDGHTTSLYGIGFGPFIITNKHLFRRNNGTLVVQSLHGVFKVKDTTTLQQHLVDGRDMIIIRMPKDFPPFPQKLKFREPQREERICLVTTNFQTKSMSSEVSDTSCTFPSGDGIFWKHWIQTKDGQCGSPLVSTRDGFIVGIHSASNFTNTNNYFTSVPKNFMELLTNQEAQQWVSGWRLNADSVLWGGHKVFMVKPEEPFQPVKEATQL [M125E]	0.058	0.0622	–	–	–	–	0.068	0.0748	0.0551	0.0877	0.0799	0.0698	0.0513	–	0.0624	0.0676	0.0803	–
MGESLFKGPRDYNPISSSICHLTNESDGHTTSLYGIGFGPFIITNKHLFRRNNGTLVVQSLHGVFKVKDTTTLQQHLVDGRDMIIIRMPKDFPPFPQKLKFREPQREERICLVTTNFQTKSMSSMVSDTSCTFPSGDGIFWKHWIQTKDGQCGSPLVSTRDGFIVGIHSASNFTNTNNYFTSVPKNFMELLTNQEAQQWVSGWRLNADSCLWGGHKVFMVKPEEPFQPVKEATQL [V210C]	0.115	0.0605	0.0781	0.164	0.0634	0.0893	0.072	0.0674	0.0581	0.0956	0.122	0.0614	0.0639	–	0.0639	0.0766	0.0774	0.0662
MGESLFKGPRDYNPISSSICHLTNESDGHTTSLYGIGFGPFIITNKHLFRRNNGTLVVQSLHGVFKVKDTTTLQQHLVDGRDMIIIRMPKDFPPFPQKLKFREPQREERICLVTTNFQTKSMSSMVSDTSCTFPSGDGIFWKHWIQTKDGQCGSPLVSTRDGFIVGIHSASNFTNTNNYFTSVPKNFMELLFNQEAQQWVSGWRLNADSVLWGGHKVFMVKPEEPFQPVKEATQL [T192F]	0.0633	0.0539	–	–	–	0.0864	–	0.0759	0.0643	–	0.132	–	0.0773	–	–	0.0747	0.0523	0.0721
MGESLFKGPRDYNPISSSICHLTNESDGHTTSLYGIGFGPFIITNKHLFRRNNGTLVVQSLHGVFKVKDTTTLQQHLVDGRDMIIIRMPKDFPPFPQKLKFREPQRGERICLVTTNFQTKSMSSMVSDTSCTFPSGDGIFWKHWIQTKDGQCGSPLVSTRDGFIVGIHSASNFTNTNNYFTSVPKNFMELLTNQEAQQWVSGWRLNADSVLWGGHKVFMVKPEEPFQPVKEATQL [E107G]	0.0764	0.035	0.0599	–	0.0543	0.0911	0.0795	0.0646	0.0662	–	0.067	0.07	0.0735	0.108	–	–	0.0956	–
MGESLFKGPRDYNPISSSICHLTNESDGHTTSLYGIGFGPFIIHNKHLFRRNNGTLVVQSLHGVFKVKDTTTLQQHLVDGRDMIIIRMPKDFPPFPQKLKFREPQREERICLVTTNFQTKSMSSMVSDTSCTFPSGDGIFWKHWIQTKDGQCGSPLVSTRDGFIVGIHSASNFTNTNNYFTSVPKNFMELLTNQEAQQWVSGWRLNADSVLWGGHKVFMVKPEEPFQPVKEATQL [T44H]	0.0514	0.0536	0.0622	0.0584	0.0523	0.0438	0.0899	–	0.0536	0.0573	–	0.0199	–	0.049	0.0424	–	0.0723	–
MGETLFKGPRDYNPISSSICHLTNESDGHTTSLYGIGFGPFIITNKHLFRRNNGTLVVQSLHGVFKVKDTTTLQQHLVDGRDMIIIRMPKDFPPFPQKLKFREPQREERICLVTTNFQTKSMSSMVSDTSCTFPSGDGIFWKHWIQTKDGQCGSPLVSTRDGFIVGIHSASNFTNTNNYFTSVPKNFMELLTNQEAQQWVSGWRLNADSVLWGGHKVFMVKPEEPFQPVKEATQL [S4T]	0.133	0.0727	0.0652	0.14	0.0485	0.102	0.111	0.103	0.0452	0.0837	0.155	0.0676	0.0639	–	–	–	–	0.077
MGESLFKGPRDYNPISSSICHLTNESDGHTTSLYGIGFGPFIITNKHLFRRNNGTLVVQRLHGVFKVKDTTTLQQHLVDGRDMIIIRMPKDFPPFPQKLKFREPQREERICLVTTNFQTKSMSSMVSDTSCTFPSGDGIFWKHWIQTKDGQCGSPLVSTRDGFIVGIHSASNFTNTNNYFTSVPKNFMELLTNQEAQQWVSGWRLNADSVLWGGHKVFMVKPEEPFQPVKEATQL [S60R]	0.0787	0.0611	0.0543	0.118	0.0541	0.0789	0.0685	–	0.055	0.0722	–	0.0584	0.0607	0.108	0.0783	–	–	0.0612
MGESLFKGPRDYNPISSSICHLTNESDGHTTSLYGIGFGPFIITNKHLFRRNNGTLVVQSLHGVFKVKDTTTLQQHLVDGRDMIIIRMPKDFPPFPQKLKFREPQREERICLVTTNFQTKSMSSMVSDTSCTFPSGDGIFWKHWIQTKDGQCGSPLVSTRDGFIVGICSASNFTNTNNYFTSVPKNFMELLTNQEAQQWVSGWRLNADSVLWGGHKVFMVKPEEPFQPVKEATQL [H168C]	0.0691	–	–	–	0.0542	–	–	–	–	–	0.0616	0.048	0.0504	–	0.0605	0.0584	–	0.0632
MGESLFKGPRDYNPISSSICHLTNESDGHTTSLYGIGFGPFIITNKHLFRRNNGTLVVQSLSGVFKVKDTTTLQQHLVDGRDMIIIRMPKDFPPFPQKLKFREPQREERICLVTTNFQTKSMSSMVSDTSCTFPSGDGIFWKHWIQTKDGQCGSPLVSTRDGFIVGIHSASNFTNTNNYFTSVPKNFMELLTNQEAQQWVSGWRLNADSVLWGGHKVFMVKPEEPFQPVKEATQL [H62S]	0.0806	0.0731	0.0781	–	0.0832	0.0771	0.0895	0.0751	0.045	–	–	–	0.0619	–	–	0.0631	–	0.0581
MGESLFKGPRDYNPISSSICHLTNESDGHTTSLYGIGFGPFIITNKHLFRRNNGTLVVQSLHGVFKVKDTTTLQQHLVDGRDMIIIRMPKDFPPFPQKLKFREPQREERICLVTTNFQTKSMSSMVSDTSCTFPSGDGIFWKHWIQTKDGQCGSPLVSTRYGFIVGIHSASNFTNTNNYFTSVPKNFMELLTNQEAQQWVSGWRLNADSVLWGGHKVFMVKPEEPFQPVKEATQL [D161Y]	0.0668	0.0578	0.0635	0.0662	0.0615	0.0329	0.0611	0.0575	0.0605	0.0678	0.0548	0.0494	–	0.0557	0.0535	–	0.0677	–
MGESLFKGPRDYNPISSSICHLTNESDGHTTSLYGIGFGPFIITNKHLFRRNNGTLVVQSLHGVFKVKDTTTLQQHLVDGRDMIIIRMPKDFPPFPQKLKFREPQREERICLVTTNFQTKSMSSMVSDTSCTFPSGDGIFWKHWIQTKDGQCGSPLVSTRDGFIVGIHSASNFTNTNNYFTSVPKNFMELLTTQEAQQWVSGWRLNADSVLWGGHKVFMVKPEEPFQPVKEATQL [N193T]	0.0837	0.064	–	0.118	0.0636	0.09	–	–	–	–	0.105	0.0829	0.0905	0.0704	0.0641	0.0696	0.0837	–
MGESLFKGPRDYNPISSSICHLTNESDGHTTSLYGIGFGPFIITNKHLFRRNNGTLVVQSLHGVFKVKDTTTLQQHLVDGRDMIIIRMPKDFPPFPQKLKFREPQREERICLVTTNFQTKSMSSMVSDTSCTFPSGDGIFWKHWIQWKDGQCGSPLVSTRDGFIVGIHSASNFTNTNNYFTSVPKNFMELLTNQEAQQWVSGWRLNADSVLWGGHKVFMVKPEEPFQPVKEATQL [T147W]	0.064	0.0593	0.0638	0.0605	–	0.055	0.0666	0.0671	0.0604	0.0496	0.0661	0.0704	0.0564	–	–	0.0593	0.06	0.0502
MGESLFKGPRDYNPISSSICHLTNESDGHTTSLYGIGFGPFIITNKHLFRRNNGTLVVQSLHGVFKVKDTTTLQQHLVDGRDMIIIRMPKDFPPFPQKLKFREPQREERICLVTTNFQTKSMSSMVSDTSCTFPSGDGIFWKHWIQTKDGQCGSPLVSTRDGFIVGIHSASNFTNTNNYFTSVPKNFMELLTNQEAQQWVSGWRLNADSVLWGGHKVFMVKPEEPFQPVIEATQL [K230I]	0.0857	0.0648	0.0667	–	0.0608	0.0708	0.076	–	0.0608	0.073	–	0.0635	0.0661	–	0.0687	0.0831	0.0816	–
MGESLFKGPRDYNPISSSICHLTNESDGHTTSLYGIGFGPFIITNKHLFRRNNGTLVVQSLHGVFKVKDTTTLQQHLVDGRDMIIIRMPKWFPPFPQKLKFREPQREERICLVTTNFQTKSMSSMVSDTSCTFPSGDGIFWKHWIQTKDGQCGSPLVSTRDGFIVGIHSASNFTNTNNYFTSVPKNFMELLTNQEAQQWVSGWRLNADSVLWGGHKVFMVKPEEPFQPVKEATQL [D91W]	0.0865	0.0673	0.0657	–	0.058	0.0819	0.0696	0.068	0.0641	–	0.0798	0.0616	–	–	–	0.0811	0.0839	0.08
